Some of the results follow.
B1: chr8:96751671:96751672:+_ENSMUSG00000032939_ENSMUST00000079961|mus_mus|FALSE|FALSE (ssRNA)
RNA: GGGAGUUCUACAGUCCGACGAUCUGUGCGUGUGAGGGUACGGGAACGCAGGCGCUCACCAGCUUGCUGGAUCUCCUGUAAAUUUCGUUCUACAUGUGGAAGCUCAGAGAUGCCUUCAGUCUCAGCAGCAAGCUGUUCAGCUUGCAACAGAGGAUUGAGCAUCA
B2: chr14:23058014:23058015:-_ENSG00000129562_ENST00000250498|hu_mus|FALSE|FALSE (ssRNA)
RNA: GGGAGUUCUACAGUCCGACGAUCAGGAGAUAGGCGUCCAGCAACUUCAGCCGCUGCGGAGUGGAGCUCAAGUACUCCUCCAGGAACCGGGAGAUGACGGACACCACAGACGCCGACAUGACGAACACGGGGACUUCGGAUACCCAACAGAGGAUUGAGCAUCA
B3: chr19:58207738:58207739:+_ENSMUSG00000054843_ENSMUST00000077282|mus_mus|FALSE|FALSE (ssRNA)
RNA: GGGAGUUCUACAGUCCGACGAUCUAAUUGGCCACAGAGUUAACAGUAGUGUGUGACAUUGCAUUAAUUCCAUAAUUAUCUAAAAUUCAAAAAUUUUAAAGUUUUAAGAACCUGGGGGAUUCACAGUGGAUGAGGCCUGACAGCCAACAGAGGAUUGAGCAUCA
B4: chr17:62496344:62496345:-_ENSG00000108654_ENST00000581693|hu_hu|motif|central (ssRNA)
RNA: GGGAGUUCUACAGUCCGACGAUCCCCAAAAUCUCUUUUAAGCAGGCUAGAGUAACCUCUGUCAUAAUUUUCCCUGUCUCGGAAGGUAUUAAAUCCACCCCUUUUGCCCGCAGAGUAUCUGUCCCGACGGUCAUCCUUCAUGCCCAACAGAGGAUUGAGCAUCA
B5: chr7:54825262:54825263:-_ENSG00000132432_ENST00000352861|hu_hu|hu_hu_hu_mus_False|18_88 (ssRNA)
RNA: GGGAGUUCUACAGUCCGACGAUCCUGCCGGCUGGGCUCCACAAACUUUACCUGAUCAUCCAUGUUUGUUGGAUGGCGGAUUGAGAGCGUAGAGACACGUAGCUCAGGAGAGAACCGGAUGGAGGCCAACCGGAAGCUGGCAACCAACAGAGGAUUGAGCAUCA
B6: chr11:53076483:53076484:-_ENSMUSG00000020361_ENSMUST00000020630|mus_hu|motif|central (ssRNA)
RNA: GGGAGUUCUACAGUCCGACGAUCUUCAAAUAAUUUUGGUCGUUCUUCAGAUUCCUGGAAACGUAUCUUAAUAGGUUGACCGGGAUUUUUUAAUUCAGCCAACUUAUCAACAUAAACUUGCUUUGGCUGGUCUUCUCCAUCCUCCAACAGAGGAUUGAGCAUCA
B7: chr17:35975164:35975165:-_ENSMUSG00000001525_ENSMUST00000001566|mus_mus|motif|central (ssRNA)
RNA: GGGAGUUCUACAGUCCGACGAUCGACCGGAGCCCGGGAGGCUGCAGCAGCGAGAUGCAAGCACGACCGCAGGAAGGUUCGGAGAGGCAGAAGAGGCCGGCGAGCGCAGGAGGGAAGGCGCGCAGGGCGGGGCUCGCGUUCGCGCAACAGAGGAUUGAGCAUCA
B8: chr1:219384882:219384883:+_ENSG00000143353_ENST00000366928|hu_hu|motif|central (ssRNA)
RNA: GGGAGUUCUACAGUCCGACGAUCGGUCACUCCUAGAGAUUUUAACAUUGAGUUUGUCUCUUCUGCCCAAGAAUGAAGAACGGACUCAUCUGCAGUACCAUGACACUGAAAUAAUUCAGGAAGUACACCAUUACUCUUCUGAAGCAACAGAGGAUUGAGCAUCA
B9: chr2:132618855:132618856:+_ENSMUSG00000027350_ENSMUST00000028826|mus_hu|FALSE|FALSE (ssRNA)
RNA: GGGAGUUCUACAGUCCGACGAUCUUCAGGUUCUUCCUCUGAAGCCCUGUAGUGGGUUGAAUGGUGGUCCCUCUUUUCCCCUAAACUGGCCAUGCUGACGUUUGACUCCUCAGAUUCCUCCUGGGGGUGUCCCUUUUCCUCAGACAACAGAGGAUUGAGCAUCA
B10: chr2:216981417:216981418:+_ENSG00000079246_ENST00000392132|hu_hu|hu_hu_hu_mus_True|1_98 (ssRNA)
RNA: GGGAGUUCUACAGUCCGACGAUCCUGAUACUGGUCCCCACCAGAAAGGGCAUUAUCAGUGCCAUCUGUGCCAUAGAGGACUAACGCAAUCUCAUCUUUGCUCUCCGAAAAUACCUGUCGUUGGACAAACAUAGUCAUCACCUUCAACAGAGGAUUGAGCAUCA
B11: chrX:45547847:45547848:-_ENSMUSG00000036985_ENSMUST00000037960|mus_hu|FALSE|FALSE (ssRNA)
RNA: GGGAGUUCUACAGUCCGACGAUCAGGGUCACUGAAGCUGGUCCUCAACAGUGUAGCCAUGGAGAAAAGGAAGAGCAUGGCAGCAAAUACAGGGAUGGCAGGAGACAGCUGAACAGCCAGGUAGCGGCACUCAAAGGCGAAGAACAACAGAGGAUUGAGCAUCA
B12: chrX:71549400:71549401:+_ENSMUSG00000019087_ENSMUST00000019231|mus_hu|mus_mus_mus_hu_False|48_108 (ssRNA)
RNA: GGGAGUUCUACAGUCCGACGAUCGCAAGGAAGAGGAGGAAGCUCUUCAGUCCAGUGCGCUGCAGGGUGGGAAAGCAACAACACGGAACCAAUACUCCCCUCAACCCCCCCACUGGCACAGGGUCACACAAUCUGGGUCAAAGACAACAGAGGAUUGAGCAUCA
B13: chr1:230810825:230810826:+_ENSG00000135775_ENST00000366669|hu_hu|FALSE|FALSE (ssRNA)
RNA: GGGAGUUCUACAGUCCGACGAUCUUUCUCAUGAAAUGCAUCGGGAUUCCCAGGAUUAAAAAGCGAGGGUAACUUUUCUUCUAAUCCUUGUACUAUUUGUGGCCAAACAGAAUUCACCAAAAAGUCAUAUCCAGGAACAGUAUUCAACAGAGGAUUGAGCAUCA
B14: chrX:98862621:98862622:+_ENSMUSG00000034160_ENSMUST00000044475|mus_hu|mus_mus_mus_hu_False|68_88 (ssRNA)
RNA: GGGAGUUCUACAGUCCGACGAUCCUGCAUCUCCUUUAGAGUGUUUCCCAUAUUGGAGUAGGCAUCAGCAAAUGUAGGACUGAUUCGAAUAGCCUCCUUAUAAUGCAUCAGAGCUUCCUGCAGUUUUCCCUGCUGCUGCAGUACCAACAGAGGAUUGAGCAUCA
B15: chr16:94653416:94653417:+_ENSMUSG00000040785_ENSMUST00000117648|mus_mus|FALSE|FALSE (ssRNA)
RNA: GGGAGUUCUACAGUCCGACGAUCCACGACGUGGAAAUCAAGCUCCUUGAGAGAUGCUCCGUACCGAGUGAAAAAGGGUCCUAUGGCAUCCAAGCCAAAACUAUUCAGUCUCUGGAUCCAGGGAGCCAACUUGGGGUCUAACUCCAACAGAGGAUUGAGCAUCA
B16: 31863339_31864431_815_CDS_ENSG00000129493_ENST00000543095|human|control|control (ssRNA)
RNA: GGGAGUUCUACAGUCCGACGAUCGGAACCUUCAAAGGACUUAAAACACAGUGUGGCCACACUGUCCAGGUCCGUACUCCACAUAAAGAUGGCUUCAUUCUGAAGUUCAAGGAGACACUUUGCAGCAGCACAACGAACAGCCAUCAACAGAGGAUUGAGCAUCA
B17: 176637440_176637560_2145_CDS_ENSG00000165671_ENST00000439151|human|control|control (ssRNA)
RNA: GGGAGUUCUACAGUCCGACGAUCCUCUGCACUCUUAGUACAACCCAUUAAGUGGUCUGUAUGUGAGUUACUAAUGAGAGGCUUCUGUUUUGCUUUUACCCUAGUGUUUGUGGCAGCAAACCUAGAAUACUUUAUCUUUUCAUUCAACAGAGGAUUGAGCAUCA
B18: 18893549_18895400_1583_CDS_ENSG00000157106_ENST00000446231|human|control|control (ssRNA)
RNA: GGGAGUUCUACAGUCCGACGAUCCCUCACCACAGUACUAAAUACCCGGAGAAGUGCAGCCAGCUUUGGUAAUGACACUGAUGGAGGAGGGACAUCUUCAUCCACUGAUUCCCCAGAGGCCACAUGGCUGAGGUCCUCAGCAUACAACAGAGGAUUGAGCAUCA
B19: chr2:5814250:5814251:-_ENSMUSG00000025816_ENSMUST00000102981|mus_hu|mus_mus_mus_hu_True|1_58 (ssRNA)
RNA: GGGAGUUCUACAGUCCGACGAUCUUCCUUUCCGGUUUCUGAAUUUCUGGUAGAACUGCACAGAAUGGUUUGAUAACUUCUAAAAACUUGAUGCCCAUGGCUGCUGCUGGGGAGGCCCAGGGGGAAACCGCGGCCUCGCAGCUGCAACAGAGGAUUGAGCAUCA
B20: chr2:179515052:179515053:+_ENSMUSG00000000305_ENSMUST00000000314|mus_hu|mus_mus_mus_hu_False|18_58 (ssRNA)
RNA: GGGAGUUCUACAGUCCGACGAUCGCUGUCCCAUGCAGUCACCGUGAACGCCACCUGCUCGGAGGGGACCUGCAGCUCCCUAGUGGCGAAGACUGUCCCAUCUGCCCCAACUUUGAAGUCCAAGCUGUUGGUCUCAUAUUGUGUCAACAGAGGAUUGAGCAUCA
B21: chr1:171882756:171882757:-_ENSMUSG00000026675_ENSMUST00000027989|mus_mus|motif|central (ssRNA)
RNA: GGGAGUUCUACAGUCCGACGAUCGAGGAAAAACAAGAAGUAGAAGUCCUACCCAGUGGCAUUGCCCCUCCGUGCUGAGACGGAAAGAAGCUUCAGGCUGUACUGUGUCCCCAUCACACAAGUCAAAACUACUGGGCUCUAGGACAACAGAGGAUUGAGCAUCA
B22: 55802173_55802293_2024_3pUTR_ENSMUSG00000045767_ENSMUST00000057844|mouse|control|control (ssRNA)
RNA: GGGAGUUCUACAGUCCGACGAUCAUGCUGAGAUCAAAUUCAUGGACCACCACACCUGGCCCAGGGAAAGCUUCUCAACUUCAAAGUUCAUAAUAUUUUACUUAGAACUCAGAAUAAAUAAAAUGUGUAUUAACACUAGGGAGACAACAGAGGAUUGAGCAUCA

What follows are binders tested against T1, UNK ZnF1-3 (human, UniProt Q9C0B0 31-174) (assay: nsRBNS (natural sequence RNA bind-n-seq); RBNS binding buffer (assumed for nsRBNS): 25 mM Tris pH 7.5, 150 mM KCl, 3 mM MgCl2, 0.01% Triton X-100, 500 ug/ml BSA, 20 U/ml SUPERase-In, 4 C; UNK is unkempt and MSI1 is Musashi-1; names of the RNAs are library labels; protein concentration not given here; high values mean tight binding).
T1 sequence: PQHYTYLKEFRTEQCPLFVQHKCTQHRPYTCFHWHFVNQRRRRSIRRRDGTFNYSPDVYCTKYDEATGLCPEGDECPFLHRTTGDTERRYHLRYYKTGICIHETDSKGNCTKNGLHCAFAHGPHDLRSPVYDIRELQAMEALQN

Binder	binding signal
B1	0.997 enrichment R
B2	1.07 enrichment R
B3	1.18 enrichment R
B4	0.798 enrichment R
B5	0.625 enrichment R
B6	0.53 enrichment R
B7	1.74 enrichment R
B8	0.856 enrichment R
B9	0.708 enrichment R
B10	0.992 enrichment R
B11	1.89 enrichment R
B12	1.7 enrichment R
B13	1.23 enrichment R
B14	1.05 enrichment R
B15	0.983 enrichment R
B16	0.971 enrichment R
B17	0.407 enrichment R
B18	1.25 enrichment R
B19	0.786 enrichment R
B20	0.765 enrichment R
B21	0.932 enrichment R
B22	1.18 enrichment R
